Screen size: about 310,000 compounds; about 14,000 (4.5%) showed an effect of 50% or more. The effect is printed as a negative number. This is one part of the list.
target: human ether-à-go-go-related gene (hERG) potassium channel (human, UniProt Q12809); assay: primary screen, population patch clamp on CHO cells stably expressing hERG
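Also: peak tail current of the secondary pulse compared with the same well before compound.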

Sequence of human ether-à-go-go-related gene (hERG) potassium channel (Q12809 whole entry, looked up): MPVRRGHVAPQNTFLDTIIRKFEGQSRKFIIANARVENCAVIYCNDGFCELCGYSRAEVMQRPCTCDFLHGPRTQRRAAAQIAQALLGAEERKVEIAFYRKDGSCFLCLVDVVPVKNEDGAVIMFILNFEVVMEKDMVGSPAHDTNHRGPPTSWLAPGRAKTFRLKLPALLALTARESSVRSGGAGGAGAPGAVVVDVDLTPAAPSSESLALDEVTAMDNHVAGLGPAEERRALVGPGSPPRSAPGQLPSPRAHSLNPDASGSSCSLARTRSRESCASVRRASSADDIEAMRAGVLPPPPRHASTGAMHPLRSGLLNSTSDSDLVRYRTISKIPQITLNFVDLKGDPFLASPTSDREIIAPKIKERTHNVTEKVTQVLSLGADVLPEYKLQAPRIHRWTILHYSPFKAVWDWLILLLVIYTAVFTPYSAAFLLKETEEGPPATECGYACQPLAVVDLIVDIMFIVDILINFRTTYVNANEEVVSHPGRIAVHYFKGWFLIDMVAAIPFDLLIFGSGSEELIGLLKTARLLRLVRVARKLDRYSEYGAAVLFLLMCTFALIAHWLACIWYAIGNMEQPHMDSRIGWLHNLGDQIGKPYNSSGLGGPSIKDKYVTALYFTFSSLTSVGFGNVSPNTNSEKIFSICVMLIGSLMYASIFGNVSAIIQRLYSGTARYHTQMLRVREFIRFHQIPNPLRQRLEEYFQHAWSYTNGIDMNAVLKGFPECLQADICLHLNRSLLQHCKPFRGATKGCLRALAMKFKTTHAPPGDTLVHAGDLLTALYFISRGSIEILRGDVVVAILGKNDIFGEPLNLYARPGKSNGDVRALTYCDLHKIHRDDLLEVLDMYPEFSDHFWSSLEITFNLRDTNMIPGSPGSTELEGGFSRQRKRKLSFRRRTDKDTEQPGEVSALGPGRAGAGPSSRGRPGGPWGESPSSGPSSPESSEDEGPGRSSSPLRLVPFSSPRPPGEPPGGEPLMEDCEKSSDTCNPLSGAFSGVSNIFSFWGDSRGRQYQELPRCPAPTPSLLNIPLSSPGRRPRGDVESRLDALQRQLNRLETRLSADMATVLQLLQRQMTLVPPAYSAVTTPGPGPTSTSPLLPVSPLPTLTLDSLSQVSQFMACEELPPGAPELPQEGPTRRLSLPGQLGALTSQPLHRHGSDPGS

| SMILES | hERG current change (%, negative = inhibition) at 10uM [%] |
| --- | --- |
| Cc1ccc(NC(=O)CC2(CC(=O)O)CCCC2)c(C)c1 | 15.6 |
| COc1ccc(C(CNC(=O)c2ccc(S(=O)(=O)N(C)C)cc2)N(C)C)cc1 (stereo not drawn) | -9.83 |
| Cl.Clc1cccc(Cl)c1NC1=NCCN1 | 18.8 |
| COc1cc(C)c(N(C(C)=O)c2ccccc2)c(C)c1 | -5.28 |
| Cc1ccc2c(c1)C1(OCCCO1)C(=O)N2CC(=O)NN | 9.91 |
| COc1ccc(C)cc1NC(=O)C1CCCN(S(=O)(=O)c2cccc3cccnc23)C1 (stereo not drawn) | -20.2 |
| CC(C)(C)n1[nH]c2c3c(ccc2c1=O)C(=O)c1ccccc1C3=O | 17.8 |
| CC1=NCC(C)c2c1[nH]c1ccccc21 (stereo not drawn) | -11.5 |
| Cc1cccc(C)c1N1C(=O)CC(N(O)c2ccccc2)C1=O (stereo not drawn) | 10.7 |
| COc1ccc(-n2c(N)c(C(=O)NCC3CCCO3)c3nc4ccccc4nc32)c(OC)c1 (stereo not drawn) | -9.82 |
| CCCN1C(=O)c2ccc(C(=O)Nc3ccc4c(c3)OCO4)cc2C1=O | 6.67 |
| CCNC(=S)N(CCc1c(C)[nH]c2ccccc12)Cc1cccnc1 | -21.3 |
| CCCc1nc2c(sc3nc4c(cc32)COC(C)(C)C4)c(=O)n1CCN(C)C | -9.65 |
| C=CCN1C(=O)C(O)(CC(=O)c2ccccc2)c2ccccc21 (stereo not drawn) | 7.64 |
| CCOc1cccc2c1OC1(C)CC2NC(=O)N1c1cccc(C(=O)NCc2ccccn2)c1 (stereo not drawn) | 10.5 |
| O=C(COC(=O)c1ccccc1Nc1ccccc1)NCc1ccccc1Cl | -2.83 |
| COc1ccc(N(CC(=O)NCc2ccccc2OC)S(=O)(=O)c2ccc(C)cc2)cc1Cl | -8.53 |
| N#Cc1c(NC(=O)CSc2nc(N)cc(=O)[nH]2)sc2c1CCCCCC2 | -18.9 |
| Nc1c(Cl)cc(-c2csc(NC(CO)c3nc4ccccc4n3CCOCCO)n2)cc1Cl (stereo not drawn) | -2.73 |
| CCN(C(=O)CSc1nc2ccccc2n1CC)C1CCS(=O)(=O)C1 (stereo not drawn) | 0.264 |
| C=CCn1c(SCc2ccccc2)nc2scc(-c3ccc(C)o3)c2c1=O | 8.76 |
| CCC(CC)C(=O)Nc1cccc(C(=O)N2CCCC2)c1 | 13.1 |

| SMILES | hERG current change (%, negative = inhibition) at 10uM [%] |
| --- | --- |
| Cc1ccccc1N=Nc1c(C)[nH]n(C(N)=S)c1=O | 17.9 |
| O=C(N/N=C/c1ccccc1)c1cccc2ccccc12 | 18.4 |
| CCn1c(SCC(=O)Nc2ccc3c(c2)OCCO3)nnc1-c1c[nH]c2ccccc12 | 10.3 |
| CCOC(=O)c1ccc(NC(=O)c2cc3c(s2)CCC3)cc1 | 6.15 |
| O=C(Cn1cc([N+](=O)[O-])cn1)NC1CCCCCC1 | 0.394 |
| CCOC(=O)Cc1sc(N)nc1C | 20.4 |
| Cc1nc(SCCOc2ccc(F)cc2)c2ccccc2n1 | 7.16 |
| CC1Cc2cc(S(=O)(=O)N3CCN(c4ccc(Cl)cc4)CC3)ccc2N1C(=O)C1CC1 (stereo not drawn) | 13.5 |
| Cc1ccc(C)c(S(=O)(=O)NCc2ccc(C(=O)N3CC(C)OC(C)C3)cc2)c1 (stereo not drawn) | -7.68 |
| CN(Cc1ccccc1)c1ccc2nnc(-c3ccccc3)n2n1 | -48.1 |
| CN1CCN(C(c2ccc(C(F)(F)F)cc2)c2cc(Cl)c3cccnc3c2O)CC1 (stereo not drawn) | 12.3 |
| O=c1c2c3c(sc2ncn1/N=C/c1ccco1)CCCC3 | -15.4 |
| CSc1nsc(SCC(=O)Nc2ccc(Br)cn2)n1 | 1.37 |
| COc1ccccc1N1CCN(C(=O)/C=C/c2ccco2)CC1 | -4.76 |
| Cc1[nH]nc2c1C(c1ccco1)C(C#N)=C(N)O2 (stereo not drawn) | 18.4 |
| Cc1ccc2nc(NC(=O)C3CCN(S(=O)(=O)c4cccc5nsnc45)CC3)sc2c1 | 8.3 |
| CC1=CC(=C(C#N)C#N)C=C(C)N1CCN1CCN(C(=O)Nc2cccc(Cl)c2)CC1 | 9.89 |
| O=C(C1CC1)N1CCN=C1SCc1ccccc1 | 4.06 |
| Cc1onc(-c2ccccc2)c1C(=O)Nc1nnc(C(C)(C)C)s1 | 6.05 |
| CC(C)CN(C(=O)COC(=O)Cc1cccc2ccccc12)c1c(N)n(Cc2ccccc2)c(=O)[nH]c1=O | 4.24 |
| O=C(Nc1ccccc1Cl)N1CCCN(c2nc(-c3ccccc3)ns2)CC1 | -6.02 |
| O=C(Nc1ccccc1)Nc1sccc1-c1nc2ccccc2s1 | -3.45 |

| SMILES | hERG current change (%, negative = inhibition) at 10uM [%] |
| --- | --- |
| O=C(Nc1ccccc1)N1CCN(c2ccccn2)CC1 | -9.11 |
| NC(=O)c1c(NC(=O)CN2C(=O)NC(Cc3ccccc3)C2=O)sc2c1CCC2 (stereo not drawn) | -26.6 |
| O=C1CCC(=O)N1c1ccc(NCCc2cccc(F)c2)c([N+](=O)[O-])c1 | 8.65 |
| O=C(N/N=C/c1c(O)n(Cc2ccc(F)cc2)c(=O)[nH]c1=O)c1ccccc1O | 14.1 |
| CN(c1ccccc1)S(=O)(=O)c1ccc(C(=O)Nc2nnc(C3=COCCO3)o2)cc1 | -40.3 |
| Cc1cc(NC(=O)c2oc3ccccc3c2C)ccc1-n1cnnn1 | -17.8 |
| COc1ccc(CC(=O)n2[nH]c(=O)c3ccccc3c2=O)cc1OC | 12.2 |
| Cn1c(CC2Sc3ccccc3NC2=O)nnc1SCC(=O)c1ccc(Cl)cc1 (stereo not drawn) | -9.27 |
| Cc1cc(N/N=C/c2ccc(O)cc2)nc(NS(=O)(=O)c2ccccc2)n1 | 20.1 |
| COC(=O)c1c(C)cc(OC(C)=O)c(C)c1OC(C)=O | 17 |
| CCOC(=O)c1[nH]c(C)c(C(=O)OCC(=O)NC2CCS(=O)(=O)C2)c1C (stereo not drawn) | 17.6 |
| Cc1ccc(C(=O)NNC(=O)c2cc(OCC(F)(F)F)ccc2OCC(F)(F)F)cc1 | -13.9 |
| CCOC(=O)N1CCN(C(=S)NC(=O)c2ccc(F)cc2)CC1 | -4.09 |
| COc1ccc(CNCCC(c2ccc(F)cc2)c2ccc(OC(C)C)cc2)cc1OC (stereo not drawn) | -73 |
| O=C(OCCNc1ncc(C(F)(F)F)cc1Cl)c1ccc(S(=O)(=O)N2CCOCC2)cc1 | -3.15 |
| Cn1c(=O)n(C)c2cc(NC(=O)c3cccc([N+](=O)[O-])c3)c(Br)cc21 | -7.32 |
| COC(=O)c1cn(NC(=O)Cc2ccc(Cl)c(Cl)c2)c(=O)c2ccccc12 | 8.58 |
| CC(=O)c1ccc(N2CCN(C(=O)c3ccc(NC4=NC5CS(=O)(=O)CC5S4)cc3)CC2)cc1 (stereo not drawn) | -1.77 |
| Cc1c(NC(=O)c2cc3c(s2)CCCC3)c(=O)n(-c2ccccc2)n1C | 16.7 |
| COc1cccc(NC(=O)CN(C)C(=O)CN2C(=O)NC(C)(c3ccc4ccccc4c3)C2=O)c1 (stereo not drawn) | -2.88 |
| Cn1nnc2cc(NC(=O)N3CC4(C)CC3CC(C)(C)C4)ccc21 (stereo not drawn) | 4.57 |
| CCCCN1C(=O)c2ccc(C(=O)NCc3ccco3)cc2C1=O | -23.3 |

| SMILES | hERG current change (%, negative = inhibition) at 10uM [%] |
| --- | --- |
| OCCCNc1c2c(nc3cc(-c4ccc(Cl)cc4)nn13)CCC2 | -32.7 |
| CC(=O)CSc1nnc(-c2ccc3c(c2)OCO3)o1 | 4.77 |
| Cc1cc(OCC(=O)OCC(=O)N2CC(C)CC(C)C2)ccc1Cl (stereo not drawn) | 3.65 |
| Cn1cc(CN2CCc3c([nH]c4ccccc34)C2C2CCCCC2)cn1 (stereo not drawn) | -8.07 |
| O=c1[nH]c(=O)n(-c2cccc3ccccc23)c(O)c1C=NCCCn1ccnc1 | 15.1 |
| COc1ccc(N2C(=O)CC(S/C(N)=N/N=C(\C)c3cccs3)C2=O)cc1 (stereo not drawn) | -26.4 |
| C=CCOc1ccc(CNCc2cccnc2)cc1OCC.Cl | 16.3 |
| CCCn1c(CCC(=O)O)ccc1-c1ccc(OC)cc1 | 4.61 |
| CCOC(=O)c1[nH]cnc1C(=O)N1CCN(C(=O)OC(C)(C)C)CC1 | 20.3 |
| CCCC1=Nc2cc(C(=O)NCc3ccco3)ccc2Sc2ccccc21 | 1.84 |
| COc1ccc(-c2noc(CCc3ccccc3)n2)cc1 | 4.83 |
| Cc1cc(C)n(C(=O)CCN2C(=O)c3ccccc3C2=O)n1 | 1.19 |
| Oc1cccc(Oc2ncc(C(F)(F)F)cc2Cl)c1 | -13.4 |
| Cc1cc(C)n(S(=O)(=O)c2ccc(C)c(C)c2C)n1 | -0.513 |
| COC(=O)c1ccc(-n2nnnc2SCC(=O)Nc2cc(OC)ccc2OC)cc1 | 2.37 |
| CCN(CC)C(=O)CSc1ccc(C(F)(F)F)cc1[N+](=O)[O-] | -9.76 |
| CC(NC(=O)C(c1ccccc1)c1ccccc1)c1ccccc1 (stereo not drawn) | 4.86 |
| N#Cc1c(-c2ccccc2)cc(-c2ccc(O)cc2)nc1N | 16.4 |
| COc1nc(NC23CC4CC(CC(C4)C2)C3)nc(OC)n1 | -18 |
| CCOC(=O)CCc1c(C)c2ccc(OCC(=O)N(CC)CC)c(C)c2oc1=O | -2.79 |
| CCCc1cc(=O)oc2c3c(cc(OCC(=O)N[C@@H](C)C(=O)O)c12)OC(C)(C)CC3 | 28.1 |

Reference: paper PMC4336329 (PLoS ONE, 2015)
